Assay results reported in PubChem BioAssay AID1346428 (National Center for Advancing Translational Sciences (NCATS), 2018).
About 1,200 (2.5%) of roughly 48,000 compounds were called active. Not shown: some 2% with an inconclusive outcome.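 The calls were made as follows: active = activation of at least 60% and not above a set upper limit (about 1 call in 100 departs from these limits); inconclusive = activation of 40% to 60%, or above that upper limit; inactive = activation under 40%.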 The list shows a part of the results.

target: Probable G-protein coupled receptor 32 (Homo sapiens) (UniProt O75388); assay: qHTS for Agonists of Human Resolvin D1 Receptor DRV1; conditions: CHO-K1 GPR32 beta-arrestin PathHunter luminescence, 90 min; at 76.9 µM; hits give high values; zero percent set by DMSO-only wells; also: 0% is about no effect
Sequence of UniProt O75388 (O75388 whole entry, looked up, the tested form may be a part): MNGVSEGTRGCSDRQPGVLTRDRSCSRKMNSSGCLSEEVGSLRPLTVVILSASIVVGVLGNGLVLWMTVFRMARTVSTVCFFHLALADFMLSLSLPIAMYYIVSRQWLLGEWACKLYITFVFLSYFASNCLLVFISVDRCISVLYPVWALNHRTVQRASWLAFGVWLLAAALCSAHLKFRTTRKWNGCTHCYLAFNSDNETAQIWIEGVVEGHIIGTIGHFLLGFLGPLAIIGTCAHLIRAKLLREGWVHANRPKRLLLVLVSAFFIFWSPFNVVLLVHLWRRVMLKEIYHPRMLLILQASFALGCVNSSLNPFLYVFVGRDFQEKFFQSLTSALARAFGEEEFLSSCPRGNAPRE
In short: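 PathHunter enzyme-fragment complementation, CHO-K1 GPR32 stable line; 2,500 cells/well, overnight attach; cpd 90 min 37 °C 5% CO2; detection reagent 1 h RT; chemiluminescence. DMSO = EC0.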

activation, inactive:
O=C(Nc1cc(NC(=O)c2ccccc2Cl)ccc1Cl)c1ccccc1 -16.8%
CCOc1ccccc1CNC(=O)c1ccc2nc(Cc3ccc(OC)cc3)oc2c1 -2.74%
Cc1cc(C)cc(OCC2CNC(=O)O2)c1 (stereo not drawn) 4.68%
CCOCCCNC(=O)NC(CCC(C)C)c1c(-n2cccc2)sc2c1CCN(C)C2 (stereo not drawn) -25.1%
CCc1ccc(NC(=O)CSc2cn(CC(=O)N3CCCC3)c3ccccc23)cc1 9.59%
COc1ccc(N2CCN(C(=O)CCNS(=O)(=O)c3ccc4c(c3)CCN4C(=O)C3CC3)CC2)cc1 20.2%
COc1ccc(CNC(=O)c2ccc(Cn3c(=O)c4cccn4c4cccnc43)cc2)cc1OC -7.59%
O=c1c2sc3ccccc3c2n(Cc2cccc(C(F)(F)F)c2)c(=O)n1Cc1ccco1 -2.57%
CN1CCN(CCCNC(=O)c2cnn(-c3ccccc3)c2-n2cccc2)CC1 12.7%
CC(C)(C)C(=O)CSc1nc2ccsc2c(=O)n1Cc1ccccc1F -37.1%
Cc1ccc(C)c(-c2nc(Cn3c(=O)cc(-c4ccccc4)c4c(C)nn(C)c43)c(C)o2)c1 -9.81%
CC(C(O)c1ccccc1)N(C)CCOC(c1ccccc1)c1ccccc1 (stereo not drawn) 29.5%
CCCOc1ccc(C(=O)Nc2cc(-c3nc4cc(C)cc(C)c4o3)ccc2C)cc1 37.1%
CN1C(=O)c2ccccc2Sc2ccc(NC(=O)N3CCN(c4ccccc4F)CC3)cc21 -4.62%
Clc1ccc(CCNC(c2nnc(-c3ccccc3)o2)c2ccccc2Cl)cc1 (stereo not drawn) -36.5%
CC(C)NC(=O)C1CCN(C(=O)N2CCOc3ccc(Cl)cc32)CC1 -14%
Cc1ccc(-c2noc(-c3ccc(N4CCCCC4)c([N+](=O)[O-])c3)n2)cc1 3.14%
CNC(=O)COc1ccc(NC(=O)c2ccc(-c3nn(C)c(=O)c4ccccc34)cc2)cc1 25.4%
CCn1c(SCc2ccccc2Cl)nc(=O)c2c(C(=O)OC)cc(C3CC3)nc21 -5.34%
COc1cc(-c2noc(-c3cc(C(C)C)[nH]n3)n2)cc(OC)c1OC -11.2%
Cc1cc(C)c2c(-n3cccc3)c(C(=O)NCCCN3CCCCC3C)sc2n1 (stereo not drawn) -12.7%
O=C(O)[C@H](O)[C@@H](O)[C@H](O[C@@H]1O[C@H](CO)[C@H](O)[C@H](O)[C@H]1O)[C@H](O)CO -3.03%
CC(=O)Nc1nonc1-c1nnc(SCc2ccc(Cl)cc2)n1C -3.83%
CCOC(=O)c1c(NC(=O)c2cc(=O)c3c(C)cc(C)cc3o2)sc(C(C)=O)c1C 5.71%
Cc1nn(S(=O)(=O)c2ccc(Cl)cc2)c(C)c1S(=O)(=O)N1CCCCCC1 -7.08%
CCc1cccc(CC)c1NC(=O)Cn1nnc2sc(-c3ccccc3)cc2c1=O 20.4%
COc1ccc(N2CCN(C(CNC(=O)CC(C)C)c3ccc4c(c3)OCO4)CC2)cc1 (stereo not drawn) -27.8%
CCCCOc1ccc(C2=NC(c3ccncc3)=Nc3ccc(Br)cc3N2)cc1 -41.8%
Cc1ccc(-c2nc3ccc(Cl)cn3c2Nc2ccc3c(c2)OCCO3)o1 -24.2%
COc1ccc(-c2nc(CS(=O)CC(=O)NCc3ccc(F)cc3)c(C)o2)cc1OC (stereo not drawn) -7.68%
Cc1c(Cl)cccc1-n1ncc(C(=O)N2CCc3ccccc3C2)c1C1CCN(C(=O)OC(C)(C)C)CC1 -9.16%
COc1ccc(OCC(=O)Nc2ccc(C(=O)OCc3cc(=O)n4nc(C)sc4n3)cc2)cc1 9.12%
CCCCCC(=O)O[C@]1(C(C)=O)CC[C@H]2[C@@H]3CCC4=CC(=O)CC[C@]4(C)[C@H]3CC[C@@]21C -4.27%
CCOc1ccccc1N(CC)C(=O)Nc1cn(C)c(=O)c2ccccc12 -18.8%
CCCCCn1c(=O)[nH]c2cc(C(=O)N3CCN(c4ccccc4)CC3)ccc2c1=O 26.5%
Oc1cc2c(cc1O)CN(C(=S)NCCc1ccc(Cl)cc1)CCC2 7.6%
Cc1ccc(/C=C/c2onc(C)c2S(=O)(=O)N2CCC(C(=O)N3CC(C)Oc4ccccc43)CC2)cc1 (stereo not drawn) -24.1%
CCc1ccc(NC(=O)CC2C(=O)N(c3cccc(OC)c3)C(=O)N2Cc2ccco2)cc1 (stereo not drawn) -5.22%
CCOc1ccccc1NC(=O)Nc1nnc(N(C)Cc2ccccc2)s1 -5.92%
Cc1ccc(NC(=O)c2oc3ccccc3c2NC(=O)Cc2cccs2)cc1 14.6%
COc1ccc2c(c1)cc1c(=O)n(CC(=O)NC3CCCCC3)nc(C)n12 7.57%
COc1cc(Cl)c(NS(=O)(=O)c2ccc3c(c2)CC(C)N3C(=O)C2CCC2)c(OC)c1 (stereo not drawn) 7.56%
CC(=O)N1CCC(N(C(=O)Nc2ccc(C)c(F)c2)C(C)C)CC1 -5.87%
COc1ccccc1NC(=O)CCS(=O)(=O)c1ccc2nc(C)sc2c1 -10.7%
CCCCCCC(=O)OC1CC(C)(C)NC(C)(C)C1 -1.68%
CCc1c(C)sc2c1CCN(C(=O)Nc1ccccc1C(F)(F)F)C2c1ccccc1 (stereo not drawn) 21.1%
Cc1ccccc1NC(=O)c1c(NC(=O)C(C)Oc2cccc(Cl)c2)sc2c1CCCC2 (stereo not drawn) -12.9%
COc1cc(Cl)c(C)cc1NC(=O)CCc1c(C)nc2cc(-c3cccc(F)c3)nn2c1C -1.83%
CCn1c(C(=O)N2CCCC(C(=O)NCCCOC)C2)cc2sccc21 (stereo not drawn) -2.61%
O=C(CCn1cnc2onc(-c3ccc(F)cc3)c2c1=O)N1CCN(c2ccc(F)cc2)CC1 4.32%
Cc1cccc(NC(=O)C2CCCN(S(=O)(=O)c3cccc4nonc34)C2)c1C (stereo not drawn) -11%
CCN1CCC(N(Cc2ccc3c(c2)OCO3)C(=O)Nc2cc(Cl)ccc2C(=O)OC)CC1 4.61%
Cc1cc(C(=O)O)c2c(=O)n(C)c(=O)n(C)c2n1 4.99%
COc1ccc(-c2cn3c(n2)sc2cc(C(=O)NC4CCCc5ccccc54)ccc23)cc1 (stereo not drawn) -6.38%
CCCOC(=O)c1c(C)oc2c1cc(NS(=O)(=O)c1ccc(OCC)cc1)c1ccccc12 0.447%
COc1cc2c(cc1NC(=O)COc1cc(C)ccc1C)oc1ccccc12 -11.9%
Cc1cc2oc(=O)c(CC(=O)NCCc3ccccc3)c(C)c2c2occ(C(C)(C)C)c12 -24.1%
Cc1cccc(N2CCN(C(=O)c3cn(C4CCCCC4)c(=O)c4c3c3ccccc3n4C)CC2)c1C -27.4%
CCCCN(C)CCCNC(=O)c1ccc2nc(N3CCCCC3)sc2c1 4.66%
CCN(C(=O)CCc1nc(-c2ccc(C)cc2)no1)c1cc(C)ccc1C -23.2%
Cc1cccc(OCCSc2nc3ccccc3n2CC(=O)N2CCCCC2)c1C -24.2%
CCN(Cc1ccccc1)Cc1c(O)ccc2c(=O)c(-c3ccccc3OC)c(C(F)(F)F)oc12 -1.09%
CC(=O)Nc1nonc1-c1nnc(SCC(=O)Nc2ccc(F)cc2F)n1-c1ccccc1 -15.1%
Cc1ccc(Cn2c(CNS(=O)(=O)c3c(C)cc(C)cc3C)nc3cccnc32)cc1 -25.3%
Cc1c(C)n(Cc2ccccc2)c2ccc(C(=O)NC(C)c3ccccc3)cc12 (stereo not drawn) -18.1%
Cc1cc(Cn2cnc3c2C[C@@H](C(=O)O)N(C(=O)C(c2ccccc2)c2ccccc2)C3)ccc1N 5.65%
CCOC(=O)c1ccc(N2CCN(c3cc(Cl)ccc3C)CC2)c(NC(=O)Nc2cccc(OC)c2)c1 -6.05%
CCOCCCNC(=O)C1CCCN(Cc2nc(-c3ccc(CC)cc3)oc2C)C1 (stereo not drawn) 40.5%
COc1ccc(N2CC(NC(=O)/C=C\c3ccc(OC)c(OC)c3)CC2=O)cc1 (stereo not drawn) -13.4%
CCc1ccc(-n2c(SC(CC)C(=O)N(CC)CC)nc3n[nH]c(C)c3c2=N)cc1 (stereo not drawn) 0.121%
Cc1nc(CC(=O)Nc2ccc(C)c(C)c2)cs1 -7.4%
CCOC(=O)N1CCN(S(=O)(=O)N2CCCC(C(=O)NCc3cc(OC)ccc3OC)C2)CC1 (stereo not drawn) -5.38%
CCc1ccc(OCC(=O)N(Cc2cccs2)c2ccc(Cl)cc2)cc1 9.72%
CCn1ccc2cc(S(=O)(=O)N3CCCN(C(=O)Nc4ccccc4OC)CC3)ccc21 -4.63%
CCCS(=O)(=O)c1ncc(Cl)c(C(=O)N2CCN(c3ccc(OC)cc3)CC2)n1 -20.2%
Cc1ccc(-c2cc(C(=O)NC(C)c3ccccc3)c3ccccc3n2)cc1C (stereo not drawn) -6.24%
CC(=O)Nc1ccccc1-c1nc2ccccc2n(CC(=O)c2ccc(C)c(C)c2)c1=O -12.2%
CCC(CC)C(=O)Nc1ccc(OCc2cc(=O)n3ccsc3n2)cc1 -10.2%
Cc1ccc2ncc(C(=O)NCc3ccccc3Cl)c(=O)n2c1 1.25%
COc1ccc(NC(=O)CSc2nc3ncccc3[nH]2)c(OC)c1 -0.99%
Cn1c(=O)cc(OCC(=O)N2CCN(c3ccccc3)CC2)c2ccccc21 6.94%
COc1ccc(NC(=O)C2CCCN(C(=O)c3cnn(-c4ccc(F)cc4)c3-n3cccc3)C2)cc1 (stereo not drawn) -5.42%
COc1ccc(-c2cc(C(=O)Oc3cccc(C)c3)c3ccccc3n2)cc1 -22.5%
